About 14,000 (4.5%) of roughly 310,000 compounds showed an effect of 50% or more. The effect is printed as a negative number. The list shows a part of the results.
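Note: peak tail current of the secondary pulse compared with the same well before compound.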

Sequence of human ether-à-go-go-related gene (hERG) potassium channel (Q12809 whole entry, looked up): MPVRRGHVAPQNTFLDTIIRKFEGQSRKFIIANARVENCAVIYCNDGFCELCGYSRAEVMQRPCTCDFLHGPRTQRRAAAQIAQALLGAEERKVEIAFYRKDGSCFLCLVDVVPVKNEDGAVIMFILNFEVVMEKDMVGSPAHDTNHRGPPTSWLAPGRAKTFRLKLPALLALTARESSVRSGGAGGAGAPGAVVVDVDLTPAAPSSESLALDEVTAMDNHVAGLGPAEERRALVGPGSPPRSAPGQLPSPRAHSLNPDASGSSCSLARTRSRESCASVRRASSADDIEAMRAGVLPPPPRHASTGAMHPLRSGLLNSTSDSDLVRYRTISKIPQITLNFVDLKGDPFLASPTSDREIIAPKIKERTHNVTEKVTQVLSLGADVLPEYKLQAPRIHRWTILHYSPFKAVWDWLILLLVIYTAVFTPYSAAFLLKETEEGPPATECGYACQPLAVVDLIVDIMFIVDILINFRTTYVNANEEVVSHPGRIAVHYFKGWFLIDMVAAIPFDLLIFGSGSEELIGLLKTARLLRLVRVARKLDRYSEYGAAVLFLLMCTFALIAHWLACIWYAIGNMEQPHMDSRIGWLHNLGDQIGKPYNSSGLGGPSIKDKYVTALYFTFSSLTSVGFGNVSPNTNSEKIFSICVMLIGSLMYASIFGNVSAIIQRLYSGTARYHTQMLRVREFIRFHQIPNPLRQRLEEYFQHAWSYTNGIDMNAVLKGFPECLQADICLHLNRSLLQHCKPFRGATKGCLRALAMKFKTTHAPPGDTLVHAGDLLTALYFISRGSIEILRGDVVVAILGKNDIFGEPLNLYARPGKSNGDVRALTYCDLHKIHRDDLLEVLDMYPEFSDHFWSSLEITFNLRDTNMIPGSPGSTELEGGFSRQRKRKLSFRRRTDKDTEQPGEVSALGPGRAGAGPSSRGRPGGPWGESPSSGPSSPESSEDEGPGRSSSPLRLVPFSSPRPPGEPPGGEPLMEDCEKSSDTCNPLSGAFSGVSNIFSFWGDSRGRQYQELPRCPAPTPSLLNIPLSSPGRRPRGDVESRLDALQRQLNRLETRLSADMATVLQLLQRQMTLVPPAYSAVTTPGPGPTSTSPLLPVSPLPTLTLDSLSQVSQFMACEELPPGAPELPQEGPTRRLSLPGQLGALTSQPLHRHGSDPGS

The test has as its target human ether-à-go-go-related gene (hERG) potassium channel (human, UniProt Q12809). Description: primary screen, population patch clamp on CHO cells stably expressing hERG.
As to `Cc1ccc(S(=O)(=O)c2nnn3c2nc(N2CCCCC2)c2ccccc23)cc1`, the “hERG current change (%, negative = inhibition) at 10uM” value was found to be 0.461%.
The value for `O=C(NNS(=O)(=O)c1ccccc1)C1CC(c2cccnc2)=NO1` (stereo not shown) was 10.1%; that for `CCCCSc1nc2c(c(=O)n1CC)SC(C)C2` (stereo not shown) was -18.5%.
The value for `Cn1nc(C(=O)NCc2ccc(Cl)cc2)c2c1-c1ccccc1S(=O)(=O)C2` was -16%; that for `CCC(C(=O)NCc1ccco1)N(C(=O)CNS(=O)(=O)c1ccc(C)cc1)c1ccccc1F` (stereo not shown) was -6.74%.
Then `C=CCn1c(O)c(C(C)=Nc2ccc(C(=O)O)cc2)c(=O)[nH]c1=O`, with 3.26%; and `COc1ccccc1NC(=O)c1ccc(NC(=O)CSc2nc(N)cc(=O)[nH]2)cc1`, with 15.3%.
As to `Cc1cccc(Nc2nc(N)nc(CN3CCC(C)CC3)n2)c1C`, the “hERG current change (%, negative = inhibition) at 10uM” value is on record as -37.6%.
Then `CC1CCCCC1NC(=O)CCCCCn1c(=S)[nH]c2ccccc2c1=O` (stereo not shown), with 7.63%; and `CCc1ccc(NC(=O)Cn2ccn(-c3cccc(Cl)c3)c(=O)c2=O)cc1`, with -7.83%; and `CCc1cc(CNC(=O)CC2C(=O)NCCN2Cc2ccccc2C(F)(F)F)on1` (stereo not shown), with 10%.
With `CC(C)CC(COCc1ccc([N+](=O)[O-])cc1)N1CCN(C(=O)c2ccc(C(F)(F)F)cc2)CCC1=O` (stereo not shown), the “hERG current change (%, negative = inhibition) at 10uM” value is -67.1%.
`Fc1ccc(CNC(=S)Nc2ccc(OC(F)F)cc2)cc1`: the “hERG current change (%, negative = inhibition) at 10uM” value is -20.6%.
As for `CN(C)/C=C1\N=C(c2ccccc2)OC1=O`, the “hERG current change (%, negative = inhibition) at 10uM” value was 3.09%.
Consider `COc1ccc(Nc2ccc(C(N)=O)cc2[N+](=O)[O-])cc1`, for which the “hERG current change (%, negative = inhibition) at 10uM” value is reported as 7.18%.
Then `Cc1cc(F)ccc1S(=O)(=O)Nc1ccc(O)c(Sc2ncn[nH]2)c1`, with 18.3%; and `CCOC(=O)C1CCN(CC(O)COc2ccc(C(C)(C)C)cc2)CC1.Cl` (stereo not shown), with -70.4%; and `N#Cc1c(N)n(-c2cccc(O)c2)c2nc3ccccc3nc12`, with -8.47%.
The value for `COc1ccc(C(=O)Nc2c(C)cc(C)cc2C)cc1OC` was 8.83%; that for `COc1ccc(O)c(C(=O)c2cc(C#N)c(=O)n(-c3ccc(Cl)cc3)c2)c1` was -46.2%.
The value for `C=CCn1c(=O)[nH]c2nc3cc(N=CN(C)C)c(C)cc3nc2c1=O` was -1.61%; that for `Cc1cccc(C)c1OCc1cc(C(=O)NCC2COCCO2)no1` (stereo not shown) was 2.39%.
With `CC(C)C(=O)Nc1c(C(=O)c2ccc(F)cc2)oc2ccccc12`, the “hERG current change (%, negative = inhibition) at 10uM” value is given as -5.9%.
The value for `CCOC(=O)c1ccc(N=c2sc(C(=O)OC)cc(=O)n2CCCN2CCOCC2)cc1.Cl` was -16.9%; that for `COC(=O)C1CCN(C(=O)c2ccc(SC)cc2OC)CC1` was -6.71%.
Then `Cc1cc(C)n2nc(C(=O)NCc3ccco3)nc2n1`, with 9.78%; and `CCc1nnc(NC(=O)CSc2nnnn2-c2cccc(C(C)=O)c2)s1`, with 23.3%.
The value for `CS/C(Nc1cc(Cl)ccc1Cl)=C(/C#N)C(=O)c1ccco1` was 17.2%; that for `COc1ccc(S(=O)(=O)N2CCOCC2)cc1NC(=O)CSc1n[nH]c(C(C)C)n1` was 19.8%; that for `COC(=O)c1ccc(SCc2cnc(Cl)s2)cc1` was 1.27%.
For the molecule `O=C1CCc2cc(OCCCCc3nnnn3C3CCCCC3)ccc2N1`, the “hERG current change (%, negative = inhibition) at 10uM” value is -64.1%.
The value for `CCOc1ccc(CN2CCN(Cc3ccon3)CC2CCO)cc1` (stereo not shown) was -62.8%; that for `Cc1ccc(C(=O)NCCCNc2ccc(C(F)(F)F)cc2[N+](=O)[O-])cc1` was 9.3%; that for `CCOC(=O)C1=C(C)N(C)C(=O)NC1c1cc2c(cc1[N+](=O)[O-])OCO2` (stereo not shown) was 16.8%.
`O=C(c1ccccc1)N1N=C(c2ccccc2)CC1c1ccccc1` (stereo not shown): the “hERG current change (%, negative = inhibition) at 10uM” value was 17.5%.
With `COc1ccc(S(=O)(=O)N(CC(=O)NCC2CCCO2)Cc2ccccc2)cc1` (stereo not shown), the “hERG current change (%, negative = inhibition) at 10uM” value is on record as -19.3%.
Then `COc1ccc(N2CC(C(=O)Nc3nnc(SCc4ccccn4)s3)CC2=O)cc1` (stereo not shown), with -12.3%.
The value for `O=C(Nc1cccc(F)c1)c1cccnc1NCCc1ccccc1` was -8.33%.
Then `Cc1ccccc1Cn1c(=O)[nH]c2ccccc21`, with -1.88%; and `Cc1cc(C)nc(/N=C2\NC(=O)CC(C(=O)O)N2c2ccc(Cl)cc2)n1` (stereo not shown), with 14.9%.
Take `C/C(=N\NC(=O)c1ccc(CN2CCOCC2)cc1)c1cccc([N+](=O)[O-])c1`: the “hERG current change (%, negative = inhibition) at 10uM” value was -19.5%.
Then `CC(C)C(=O)NNC(=O)CN1CCN(c2nc(-c3ccccc3)cs2)CC1`, with 15.7%; and `COc1c(N2CCN(C(=S)NC3CC4CCC3C4)C(C)C2)c(F)cc2c(=O)c(C(=O)O)cn(C3CC3)c12` (stereo not shown), with -11.4%; and `Cc1ccc(C(=O)OCC(=O)NCc2ccc(F)cc2)o1`, with 17.2%.
Then `CC(=O)NC(CC(=O)OCC(=O)N1CCc2ccccc21)c1ccccc1` (stereo not shown), with 8.71%; and `CCc1c(C)nc(SCC(=O)CC(=O)OC(C)C)c(C#N)c1C`, with -5.39%; and `COc1ccc(S(=O)(=O)N2CCN(Cc3cc(OC)c(O)c(OC)c3)CC2)cc1.O=C(O)C(=O)O`, with 4.57%.
Regarding `CCN(Cc1ccccc1)C(c1ccccn1)c1nnnn1C1CCCCC1` (stereo not shown), the “hERG current change (%, negative = inhibition) at 10uM” value is reported as -4%.
Then `COC(=O)COc1ccc(C(=O)OC)cc1`, with 10.1%; and `Cc1ccc(-n2nnnc2SCC(=O)N2CCc3ccccc3C2)cc1`, with -23.3%; and `CC1(C)OC(C(=O)NC2CCCCC2)C(C(=O)NC2CCCCC2)O1` (stereo not shown), with 21.5%.
As to `CC1CCN(c2ccc3nnc(CCC(=O)N4CCN(c5ccc(F)cc5)CC4)n3n2)CC1`, the “hERG current change (%, negative = inhibition) at 10uM” value is recorded as -66.2%.
The value for `CC(=O)Nc1ccccc1OC(=O)N1CCOCC1` was 11.3%.
The value for `COc1ccccc1C1/C(=C(/O)c2ccc(C)cc2)C(=O)C(=O)N1CCN1CCOCC1` (stereo not shown) was 0.459%; that for `Cc1ccc(S(=O)(=O)NC(CC(=O)NCC2CCCO2)c2ccccc2)cc1` (stereo not shown) was 24.7%; that for `C/C(N)=C(/C#N)C(=O)CSc1nc2cc(Cl)ccc2c(=O)n1Cc1ccco1` was 16.8%.
With `COc1ccc(OCc2nnc(SC(C)C(=O)Nc3nccs3)n2-c2ccccc2)cc1` (stereo not shown), the “hERG current change (%, negative = inhibition) at 10uM” value is -10.4%.
Then `COc1ccccc1NS(=O)(=O)c1ccc2oc(SCC(C)=O)nc2c1`, with 9.88%.
Then `COc1cccc(CNC(=O)CN(c2ccc(C(C)C)cc2)S(=O)(=O)c2c(C)noc2C)c1`, with -4.72%; and `CCN(CC)c1ccc(/C=N/NC(=O)c2cccc(S(=O)(=O)N3CCOCC3)c2)c(O)c1`, with -17.5%; and `COCCn1c(C)cc(C(=O)COC(=O)C23CC4CC(CC(O)(C4)C2)C3)c1C`, with 3.67%.
Then `c1ccc(-n2nnnc2NC2CCCCCC2)cc1`, with 9.74%; and `CC(C)(C)c1ccc(S(=O)(=O)N2CCC(c3nc4ccc(Cl)cc4[nH]3)CC2)cc1`, with -3.97%.
On to `Cc1ccc(/C=C2/C(=O)ON=C2c2ccccc2)o1`, for which the “hERG current change (%, negative = inhibition) at 10uM” value amounted to 5.52%.
The value for `NNC(=O)c1cccc(COc2ccc(Br)cc2)c1` was -27.4%; that for `Cc1cccc(NC(=O)CCc2nnc3ccc(N4CCC(C)CC4)nn23)n1` was 3.7%.
The value for `O=C(O)/C=C/C(=O)c1ccc2c(c1)NC(=O)CO2` was 20.6%; that for `N=C1SCC(=O)N1c1ccc(Cl)cc1` was 8.91%.
As for `CCC(C)c1ccc(NC(=O)CC(C)=O)cc1` (stereo not shown), the “hERG current change (%, negative = inhibition) at 10uM” value was 4.93%.
As for `CCCc1nc2c(s1)CCc1onc(-c3ccc(OC)cc3)c1-2`, the “hERG current change (%, negative = inhibition) at 10uM” value is on record as 8.76%.
The value for `Cc1cc(C)c(S(=O)(=O)N2CCN(C(=O)c3cccs3)CC2)c(C)c1` was -28.5%; that for `COc1ccc(N2C(=O)CC(N3CCN(S(=O)(=O)c4c(C)cc(C)cc4C)CC3)C2=O)cc1` (stereo not shown) was -12.2%.
Consider `CCOC(=O)Nc1cc(OCC)c(NC(=O)C2CC2)cc1OCC`, for which the “hERG current change (%, negative = inhibition) at 10uM” value is 11%.
The value for `c1ccc2sc(N3CCNCC3)nc2c1` was 17%; that for `COc1cccc(CN2CCN(Cc3ccc4c(NC(C)=O)cccc4n3)CC2CCO)c1` (stereo not shown) was 5.13%; that for `COc1ccc(/C=C2/Sc3ccc(C(=O)N4CCOCC4)cc3NC2=O)cc1OC` was 26.9%.
Then `O=C(Cc1cccs1)NNC(=S)NCc1ccco1`, with 14.2%.
The value for `CCc1ccc(NS(=O)(=O)c2ccc3c(c2)oc(=O)n3C)cc1` was 10.8%; that for `CCOc1ccccc1/C=N/n1c(C2CCCCC2)n[nH]c1=S` was 16.8%.
Take `CS(=O)(=O)c1ccc(Cl)c(NC(=O)c2cccc(Br)c2)c1`: the “hERG current change (%, negative = inhibition) at 10uM” value was -1.24%.
Then `Cl.O=C(OC[C@@H]1CCCN2CCCC[C@H]12)c1cc2ccccc2oc1=O`, with -50.1%.
Turning to `Cn1c(=O)c(=O)n(C)c2cc(S(=O)(=O)CCC(=O)Nc3cccc(C(F)(F)F)c3)ccc21`, the “hERG current change (%, negative = inhibition) at 10uM” value is on record as 26.7%.
The value for `CCCC(=O)Nc1nnc(-c2ccccc2)o1` was 7.03%; that for `O=C(NS(=O)(=O)c1ccc2c(c1)OCCO2)c1ccccc1` was 28.1%; that for `O=S(=O)(Cc1ccc(Cl)cc1)NCc1cccnc1` was -5.17%.
Turning to `Cc1cc(C)n2c(SCC(=O)NCc3ccco3)nnc2n1`, the “hERG current change (%, negative = inhibition) at 10uM” value is recorded as 21.7%.
The value for `O=C(c1sc2cc(F)ccc2c1Cl)N1CCN(c2cccc(Cl)c2)CC1` was 6.75%; that for `O=C(NNC(=O)C12CC3CC(CC(C3)C1)C2)c1csc(N2CCOCC2)n1` was 11.3%.

Source of the values: article PMC4336329 (PLoS ONE, 2015).
